# Source: the supplement of paper PMC10126150
# Values marked as one replicate rest on one cluster of the flow cell; about a third of the high ones do not repeat.
# Tested on: ATP
# Test: switch fluorescence ratio, 500 uM ATP over buffer (Cy3 cluster intensity, sum of 5 cycles each) (fold (ratio)); higher = stronger signal-on switching upon ATP binding; sequences stand for … in TCGTCGGCAGCGTCAGATGTGTATAAGAGACAGTTTTTTTTTTTTTTTTTTTTTTTTT…TC
# Settings: aptamer strand: ATP DNA aptamer (quencher-CACCTGGGGGAGTATTGCGGAGGAAGG + anchor), 100 nM annealed; ATP concentration: 500 uM; one replicate
# Summary of the method: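 After annealing to 100 nM quencher-labelled ATP aptamer, Cy3-labelled switching-strand clusters on a modified Illumina MiSeq flow-cell were imaged in selection buffer. A second image followed after 15 min with 500 uM ATP at 22 °C, and five such buffer/ATP cycles were done, each separated by NaOH stripping and re-annealing. The fluorescence ratio, averaged per switch-domain sequence, is summed target-cycle over summed buffer-cycle Cy3 intensity per cluster, with clusters outside 100-1000 RFU excluded.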
# 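Note: ATP exposure 15 min at 22 °C before imaging.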
row,Sequence,switch fluorescence ratio
1,CGCCTGAGT,1.04
2,CGCCTGCCTA,1.04
3,CGCCTGTGTT,1.04
4,CGCCTTCATT,0.947
5,CGCCTTGTAA,1.03
6,CGCGAAAGGG,0.974
7,CGCGAAGGTC,1.02
8,CGCGAATAGT,1.2
9,CGCGACTCA,1.25
10,CGCGAGGAGG,1.05
11,CGCGATTGGG,1.08
12,CGCGCTCATA,1.1
13,CGCGCTGGCC,1.05
14,CGCGCTGTTA,1.02
15,CGCGCTTGTC,1.12
16,CGCGGACTCG,1.29
17,CGCGGACTGG,1
18,CGCGGACTTT,1.1
19,CGCGGCCGCC,0.981
20,CGCGGCCTG,0.972
21,CGCGGCGAAC,1.03
22,CGCGGGCACA,1.1
23,CGCGGGGAAA,1.03
24,CGCGGGGAGA,1.1
25,CGCGGGGGCA,1.01
26,CGCGGTGGC,1.06

row,Sequence,switch fluorescence ratio
1,CGCGGTTTCA,1.04
2,CGCGTACCCG,0.901
3,CGCGTCAAAA,1.01
4,CGCGTCATGC,1.09
5,CGCGTCCCCT,1.37
6,CGCGTCGGGC,0.999
7,CGCGTCGTCC,1.03
8,CGCGTCTCTT,1.03
9,CGCGTGAATG,0.987
10,CGCGTGGTAG,1.06
11,CGCGTGTGGG,1.1
12,CGCGTTAGCC,1.04
13,CGCTAAGTG,1.02
14,CGCTACATTC,1.6
15,CGCTACTGGA,1.11
16,CGCTAGGGA,1.02
17,CGCTAGGGCT,1.01
18,CGCTATAGGG,1.09
19,CGCTATCCGC,1.23
20,CGCTATGCCC,1.13
21,CGCTCAGGGC,1.02
22,CGCTCCCGGG,1.68
23,CGCTCCTTCG,1.43
24,CGCTCGAGTG,0.997
25,CGCTCGCCCC,1.98
26,CGCTCGGGGG,1.04

row,Sequence,switch fluorescence ratio
1,CGCTCTACG,1.17
2,CGCTCTTTAA,1.01
3,CGCTGAAAC,1.4
4,CGCTGCAAAT,4.28
5,CGCTGGTTCG,1.05
6,CGCTGTACCC,2.26
7,CGCTGTAGGA,1.01
8,CGCTGTATTA,0.999
9,CGCTTAGTTG,1.05
10,CGCTTATATA,1.06
11,CGCTTCGGTC,1.09
12,CGCTTCTTAA,0.997
13,CGCTTGGTTG,0.97
14,CGCTTGTGGC,1.02
15,CGCTTTAAGG,1.03
16,CGCTTTATGG,1.09
17,CGCTTTCTTC,1.02
18,CGCTTTTGTC,1.05
19,CGGAAAACTA,1.08
20,CGGAAAAGGA,1.06
21,CGGAAACGAT,1.02
22,CGGAAATATG,1.01
23,CGGAAATTAA,0.963
24,CGGAAATTAT,1.04
25,CGGAAATTTT,0.972
26,CGGAACAGCT,0.949

row,Sequence,switch fluorescence ratio
1,CGGAAGACCT,1.06
2,CGGAAGTAGT,0.99
3,CGGAAGTCGG,1.05
4,CGGAAGTGTT,0.98
5,CGGAATTGG,1.02
6,CGGACATCTA,1.08
7,CGGACATGTG,0.984
8,CGGACCAGAT,0.988
9,CGGACCGCAC,5.08
10,CGGACTAGCA,1.14
11,CGGAGAAGT,1.02
12,CGGAGCTATT,3.56
13,CGGAGGACTA,1.02
14,CGGAGGGGGC,1.04
15,CGGAGGTCCC,1.04
16,CGGAGTGATG,1.12
17,CGGAGTTTGG,1.06
18,CGGATAGATA,0.978
19,CGGATAGCCA,1
20,CGGATATTAG,0.983
21,CGGATCTGTT,1.01
22,CGGATGGGG,1.07
23,CGGATGGTAC,1.12
24,CGGATGTCGG,0.914
25,CGGATTACTG,1.05
26,CGGATTCCTT,1

row,Sequence,switch fluorescence ratio
1,CGGATTCGGG,0.96
2,CGGATTTCTG,0.965
3,CGGATTTGTC,0.968
4,CGGCACAAGT,1
5,CGGCACATGG,1.16
6,CGGCACTGGA,1.06
7,CGGCATCCGC,1.5
8,CGGCATCCTG,0.992
9,CGGCATGCTC,1.25
10,CGGCATTGGC,1.05
11,CGGCCAACGG,1.05
12,CGGCCATAGG,1.31
13,CGGCCCAGGT,4.74
14,CGGCCCGGCC,1.02
15,CGGCCCGTTC,1.08
16,CGGCCGGTGT,1.03
17,CGGCCTGGCA,1.03
18,CGGCGCCGGT,0.966
19,CGGCGCTGTC,0.97
20,CGGCGGCGAG,0.981
21,CGGCGGCTCC,3.09
22,CGGCGGCTGG,0.965
23,CGGCGGTTAA,1.03
24,CGGCGTAGGT,0.978
25,CGGCGTGTGG,0.947
26,CGGCTCCACA,1.18

row,Sequence,switch fluorescence ratio
1,CGGCTCGGGA,1.03
2,CGGCTTAATT,0.945
3,CGGCTTATTT,0.965
4,CGGGAACATA,1.02
5,CGGGAAGCAT,1.05
6,CGGGAAGCT,1.02
7,CGGGAATTTA,0.997
8,CGGGACCT,1.23
9,CGGGACCTGC,0.996
10,CGGGAGAGTG,0.986
11,CGGGAGGAGC,1.04
12,CGGGAGGATA,1
13,CGGGAGGCTC,1.02
14,CGGGAGGTGG,0.975
15,CGGGAGTCTA,1.09
16,CGGGCACGCT,1.03
17,CGGGCATGAG,0.963
18,CGGGCGAAAA,0.975
19,CGGGCGAACA,0.975
20,CGGGCGCACG,1.05
21,CGGGCGGGTC,1.02
22,CGGGCGTTCA,1.01
23,CGGGGAGATT,0.973
